Test results: PubChem BioAssay AID686978 (National Center for Advancing Translational Sciences (NCATS), 2013)
Values joined by “and” are separate entries in the source; they are usually repeats but may differ in a detail not shown here. Equal entries are not always repeated. The campaign covered roughly 420,000 compounds. About 64,000 (15%) were called active. The inconclusive results got no clear call from the source; some entries with a clear call stand among them for comparison. Calls come from the whole dose curve; as a rule, active = well fitted inhibition curve with a large enough effect; inconclusive = small, poorly fitted or top-dose-only effect; inactive = flat fitted curve, though single readings scatter. A potency beside an inconclusive call is a rough fit, not a confirmed value.

Assay: qHTS for Inhibitors of human tyrosyl-DNA phosphodiesterase 1 (TDP1): qHTS in cells in absence of CPT; note: nearly all actives have a fitted effect of over 55% in size
Settings: DT40 Tdp1-/- hTDP1 cells, no CPT, ATP luminescence, 48 h; activity change, negative = growth inhibition: at 46.2 µM (top of the series) unless noted
Method in brief: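 Chicken DT40 Tdp1-/- cells stably complemented with human TDP1 were seeded at 400 cells/well with DMSO in place of 20 nM camptothecin. After compound pinning, cells grew at least 48 hr at 37 °C; viability read by CellTiter-Glo luminescence.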
% is set by controls: 0 for no effect and ±100 for the full control effect; potency is the fitted concentration of half-maximal effect; tags give direction and shape of the fitted curve.

Q: For `CC(=O)Nc1ccc(SC[C@H](Cc2ccccc2)N2CC[C@@H](C)CCC2=O)cc1`, which Potency is on record?
A: Its Potency is inconclusive: 22.4 µM [inhibitor, single point] and inconclusive: 7.31 µM [inhibitor, partial curve, poor fit].

Q: For `COc1ccc(C2NC(=S)N3C(c4ccc(OC)cc4)NC(=S)N23)cc1` (configuration not stated), which Potency is on record?
A: Its Potency is active: 16.4 µM.

Q: For `CC(C)c1ccc(Nc2nc(Cl)nc(Cl)n2)cc1`, which activity change, negative = growth inhibition is on record?
A: The activity change, negative = growth inhibition was inconclusive: -32.5% [inhibitor].

Q: With `COc1ccc(C(=O)CCS(=O)(=O)c2ccc(C)cc2)cc1` as the molecule, how does the Potency read?
A: The Potency was active: 2.31 µM.

Q: Which Potency does the source give for `COc1ccc2oc(-c3ccc(C)c(NC(=O)c4ccc5c(c4)OCCO5)c3)nc2c1` here?
A: The Potency was active: 16.4 µM.

Q: For `COC1OC2COC(c3ccccc3)OC2C2OC(c3ccccc3)OC12` (configuration not stated), which Potency is on record?
A: Its Potency is inconclusive: 20.6 µM [inhibitor, single point].

Q: Which Potency does the source give for `CC(NC(=O)CCCN1C(=O)c2ccccc2C1=O)c1ccc2c(c1)CCCC2` (configuration not stated) here?
A: Its Potency is inconclusive: 20.6 µM [inhibitor, partial curve].

Q: With `O=C(NCCCN1CCN(c2cccc(Cl)c2)CC1)c1cccc(N2CCCC2=O)c1` as the molecule, how does the Potency read?
A: The Potency was inconclusive: 18.4 µM [inhibitor, single point].

Q: For `CCCCCC/C(C)=C1/SC(=S)NC1=O`, which Potency is on record?
A: The Potency was “inactive”.

Q: With `Cc1ccc(S(=O)(=O)Nc2nc3ccccc3nc2NCC2CCCO2)cc1` (configuration not stated) as the molecule, how does the Potency read?
A: Its Potency is inconclusive: 11.6 µM [inhibitor, partial curve].

Q: With `Cc1ccc(SCC(=O)OCc2csc(CC(=O)Nc3ccccc3C)n2)cc1C` as the molecule, how does the Potency read?
A: Its Potency is “inactive”.

Q: Which Potency does the source give for `COc1ccc(C2=C(C)C(=NCCCN3CCN(c4cc(Cl)ccc4C)CC3)NS2(=O)=O)cc1` here?
A: Its Potency is active: 8.2 µM.

Q: For `Cc1ccc(C(=O)N/N=C/c2ccc(-c3ccccc3[N+](=O)[O-])o2)cn1`, which Potency is on record?
A: The Potency was inconclusive: 18.4 µM [inhibitor, single point].

Q: For `O=C(CSC1CCCCC1)Nc1nccs1`, which Potency is on record?
A: Its Potency is “inactive”.

Q: For `CCOC(=O)C1CCCCN1Cc1ccc(OC)c(OC)c1` (configuration not stated), which Potency is on record?
A: The Potency was inconclusive: 0.517 µM [inhibitor, partial curve, poor fit].

Q: Which Potency does the source give for `Cc1ccc(NC(=O)Cn2cc(S(=O)(=O)Cc3cccc(Cl)c3)c3ccccc32)cc1C` here?
A: The Potency was inconclusive: 16.4 µM [inhibitor, single point].

Q: Which Potency does the source give for `COc1ccc(-n2ncc(C(=O)Nc3ccc4c(c3)OCO4)c2C2CCN(C(=O)OC(C)(C)C)CC2)cc1` here?
A: Its Potency is inconclusive: 20.6 µM [inhibitor, single point].

Q: With `Cc1ccc(S(=O)(=O)CC(=O)Nc2c(C)n(C)n(-c3ccccc3)c2=O)cc1` as the molecule, how does the Potency read?
A: The Potency was “inactive”.

Q: Which Potency does the source give for `CSc1c(CC(=O)Nc2ccccc2Cl)n(Cc2ccccc2)c2ccccc12` here?
A: The Potency was inconclusive: 29.1 µM [inhibitor, partial curve, poor fit].

Q: For `COc1cc(/C=C(/C#N)C(=O)Nc2ccccc2)ccc1OCc1ccc(C(=O)O)cc1`, which Potency is on record?
A: The Potency was inconclusive: 29.1 µM [inhibitor, single point].

Q: With `O=C(CCC1N=C2c3ccccc3N=C(SCc3ccccc3F)N2C1=O)NCc1ccccc1` (configuration not stated) as the molecule, how does the Potency read?
A: Its Potency is active: 18.4 µM.

Q: Which Potency does the source give for `CCCNC(=O)COCc1cc(-c2ccc(F)cc2)on1` here?
A: The Potency was inconclusive: 23.1 µM [inhibitor, single point].

Q: For `COc1ccc(C(CNC(=O)c2cc(S(=O)(=O)Nc3cccc(C)c3)ccc2C)N2CCCC2)cc1` (configuration not stated), which Potency is on record?
A: Its Potency is inconclusive: 18.4 µM [inhibitor, single point].

Q: With `Cn1c(-c2ccccc2)cnc1NCc1ccccc1O` as the molecule, how does the Potency read?
A: Its Potency is inconclusive: 25.9 µM [inhibitor, single point].

Q: For `CCC(=O)NC(=S)Nc1ccc(NC(=O)c2ccc(C)c([N+](=O)[O-])c2)cc1`, which Potency is on record?
A: Its Potency is active: 8.2 µM.

Q: Which Potency does the source give for `COc1cccc(-c2cnc3c(NC(C)=O)cc(-c4ccc(C(=O)N5CCOCC5)cc4)cn23)c1` here?
A: Its Potency is active: 18.4 µM.

Q: With `Cc1c(NC(=O)c2cc(Br)ccc2Cl)cccc1-n1cnnn1` as the molecule, how does the Potency read?
A: Its Potency is “inactive”.

Q: For `CCn1c(C(=O)Nc2c(C)cccc2C)cc2sc(Cl)cc21`, which Potency is on record?
A: The Potency was inconclusive: 25.9 µM [inhibitor, single point].

Q: For `CN(C(=O)c1cc2c(Cl)nc3ccccc3c2s1)c1cccc(C(F)(F)F)c1`, which Potency is on record?
A: The Potency was “inactive”.

Q: With `CN(C)N1C(N)=C(C#N)C(c2ccc(Br)cc2)C2=C1CC(C)(C)CC2=O` (configuration not stated) as the molecule, how does the Potency read?
A: The Potency was “inactive”.

Q: With `COc1ccccc1CNC(=O)C1CC(c2cccc([N+](=O)[O-])c2)=NO1` (configuration not stated) as the molecule, how does the Potency read?
A: The Potency was active: 23.1 µM.

Q: Which Potency does the source give for `Nc1nc(Cl)cc(Nc2ccccc2Cl)n1` here?
A: Its Potency is “inactive”.

Q: With `O=C(Nc1ccc(S(=O)(=O)Nc2nccs2)cc1)c1cccc(S(=O)(=O)N2CCOCC2)c1` as the molecule, how does the Potency read?
A: The Potency was “inactive”.

Q: Which Potency does the source give for `O=C(Cn1nc(-c2ccccc2)c2c(c1=O)CCCC2)Nc1ccc(F)c(Cl)c1` here?
A: The Potency was “inactive”.

Q: Which Potency does the source give for `CC1CCCC(NC(=O)COC(=O)/C=C/c2ccc(S(=O)(=O)N3CCOCC3)cc2)C1C` (configuration not stated) here?
A: Its Potency is “inactive”.

Q: With `Cc1cc(C)nc(NC(=O)CSc2nc3ccccc3s2)n1` as the molecule, how does the Potency read?
A: The Potency was “inactive”.

Q: For `COc1ccc(S(=O)(=O)N2CCCC(C(=O)NC3CCCC3)C2)cc1OC` (configuration not stated), which Potency is on record?
A: Its Potency is inconclusive: 23.1 µM [inhibitor, partial curve, poor fit].

Q: With `O=C(COC(=O)/C=C/c1cccs1)Nc1nc(-c2ccccc2)cs1` as the molecule, how does the Potency read?
A: The Potency was active: 13 µM.

Q: For `CCN(CC(=O)Nc1c(F)cccc1F)C(=O)/C=C/c1ccc2ccccc2n1`, which Potency is on record?
A: The Potency was “inactive”.

Q: With `COc1ccc(/C=C/C(=O)NCC(c2ccc(F)cc2)N2CCOCC2)cc1OC` (configuration not stated) as the molecule, how does the Potency read?
A: Its Potency is inconclusive: 0.0065 µM [inhibitor, full curve, poor fit].

Q: Which Potency does the source give for `CC1=CC(C)(C)NC(=S)N1C(C)c1ccccc1` (configuration not stated) here?
A: The Potency was inconclusive: 18.4 µM [inhibitor, partial curve].

Q: With `C=C1C=C(C(F)F)n2ncc(C(=O)N3CCN(c4ccccc4)CC3)c2N1` as the molecule, how does the Potency read?
A: The Potency was inconclusive: 35.5 µM [inhibitor, single point].

Q: With `CCOc1ccc2nc(NC(=O)c3cccnc3)sc2c1` as the molecule, how does the Potency read?
A: The Potency was “inactive”.

Q: For `COc1cccc(-c2nc(SCC(=O)Nc3nc(-c4ccccc4)c(C)s3)[nH]c(=O)c2C#N)c1`, which Potency is on record?
A: Its Potency is “inactive”.

Q: For `CC(=O)Cc1cc(O)c2ccccc2c1OC(=O)c1ccccc1`, which Potency is on record?
A: Its Potency is active: 14.6 µM.

Q: With `Cc1ccnc(NC(=O)c2ccc([N+](=O)[O-])s2)c1` as the molecule, how does the Potency read?
A: Its Potency is inconclusive: 20.6 µM [inhibitor, single point].

Q: With `CCN(CC)C(=O)[C@H]1C[C@H](CC(=O)NCc2cccc(C(F)(F)F)c2)C(=O)N2CCc3c([nH]c4cc(CCC(=O)N(C)C)ccc34)[C@]12C` as the molecule, how does the Potency read?
A: The Potency was inconclusive: 20.6 µM [inhibitor, single point].

Q: With `COc1ccccc1CNCCCCCCNCCCCCCCCNCCCCCCNCc1ccccc1OC` as the molecule, how does the Potency read?
A: The Potency was active: 6.51 µM.

Q: For `COc1cccc(-c2noc(COc3ccc(C(C)(C)C)cc3)n2)c1`, which Potency is on record?
A: The Potency was “inactive”.

Q: With `CCOC(=O)CSc1nc2ccccc2c(=O)n1CC1CCCC1` as the molecule, how does the Potency read?
A: Its Potency is active: 14.6 µM.

Q: For `Cc1ccccc1NS(=O)(=O)c1ccc2[nH]cc(C(=O)NC3CCCCC3)c(=O)c2c1`, which Potency is on record?
A: Its Potency is inconclusive: 18.4 µM [inhibitor, single point].

Q: With `CN(C(=O)c1cccc(NC(=O)Cc2ccc(NC(=O)C3CCCN(C(=O)CCc4ccccc4)C3)cc2)c1)C1CCCC1` (configuration not stated) as the molecule, how does the Potency read?
A: Its Potency is active: 16.4 µM.

Q: For `COc1cc(C(C)=O)ccc1OCC(=O)Nc1cc(S(=O)(=O)N2CCOCC2)ccc1N1CCCC1`, which Potency is on record?
A: The Potency was inconclusive: 6.51 µM [inhibitor, single point].

Q: With `COc1ccc(C(=O)CCN2CCCC(C)C2)cc1` (configuration not stated) as the molecule, how does the Potency read?
A: Its Potency is inconclusive: 20.6 µM [inhibitor, single point].

Q: With `CC1CCCCC1Nc1nc2ccc(Cl)cc2n2cnnc12` (configuration not stated) as the molecule, how does the Potency read?
A: Its Potency is inconclusive: 16.4 µM [inhibitor, single point].

Q: With `COc1cccc(COC(=O)c2sc3nc4n(c(=O)c3c2C)CCC4)c1OC` as the molecule, how does the Potency read?
A: Its Potency is inconclusive: 29.1 µM [inhibitor, single point].

Q: Which Potency does the source give for `CC(C)(C)OC(=O)N1CCC(c2c(C(=O)NCC3CCN(C4CCCC4)C3)cnn2-c2ccccc2Cl)CC1` (configuration not stated) here?
A: Its Potency is inconclusive: 16.4 µM [inhibitor, single point].

Q: For `CCOC(=O)NC1Cc2ccccc2C1Sc1ccccn1` (configuration not stated), which Potency is on record?
A: The Potency was “inactive”.

Q: For `Cc1nc2ccccc2n1C(C)c1nc2ccccc2n1CC(=O)c1ccc(OC(F)(F)F)cc1` (configuration not stated), which Potency is on record?
A: The Potency was inconclusive: 20.6 µM [inhibitor, single point].

Q: Which Potency does the source give for `O=C(Nc1cccc(C(F)(F)F)c1)c1cccc2c(-c3cccnc3)coc12` here?
A: The Potency was inconclusive: 20.6 µM [inhibitor, single point].

Q: With `Cn1c(SCC(=O)N(C2CCCCC2)C2CCCCC2)nnc1-c1cccs1` as the molecule, how does the Potency read?
A: Its Potency is active: 16.4 µM.

Q: For `COc1ccc2c(CN3CCN(c4ccc(Cl)c(Cl)c4)CC3)cc(=O)oc2c1`, which Potency is on record?
A: The Potency was active: 13 µM.

Q: Which Potency does the source give for `Cc1noc(C)c1-c1ccc(C(=O)Nc2cccc(C(F)(F)F)c2)c2occc12` here?
A: Its Potency is active: 20.6 µM.

Q: For `CCn1c2ccc(F)cc2c2nc3ccccc3nc21`, which Potency is on record?
A: Its Potency is inconclusive: 23.1 µM [inhibitor, single point].

Q: Which Potency does the source give for `Cc1ccc(NC(=O)c2oc3ccc(S(=O)(=O)N4CCCCCC4)cc3c2C)c(C)c1` here?
A: Its Potency is “inactive”.

Q: With `CC(C)N1CCN(C(=O)c2ccc([N+](=O)[O-])cc2)CC1` as the molecule, how does the Potency read?
A: Its Potency is “inactive”.

Q: For `COc1ccc(N2CCN(C(=O)c3cc4c(C)nc5ccccc5c4o3)CC2)cc1`, which Potency is on record?
A: Its Potency is active: 9.2 µM.

Q: With `Cc1ccc(CN2CCOCCS2(=O)=O)cc1` as the molecule, how does the Potency read?
A: Its Potency is inconclusive: 35.5 µM [inhibitor, single point].

Q: Which Potency does the source give for `CCC(=O)N=c1sc2c(C)cc(C)cc2n1CC(=O)OC` here?
A: Its Potency is inconclusive: 29.1 µM [inhibitor, single point].

Q: Which Potency does the source give for `COc1ccc(OC)c(NC(=O)Cn2c(=O)n(-c3cccc(C)c3)c(=O)c3c2c2cc(C)ccc2n3C)c1` here?
A: Its Potency is inconclusive: 6.51 µM [inhibitor, single point].

Q: Which Potency does the source give for `COc1ccc(-n2c(C)nnc2SCc2nc(-c3ccc(OC)c(OC)c3)no2)cc1` here?
A: Its Potency is “inactive”.

Q: With `COc1cc(C2CC(c3c(C)cc(C)[nH]c3=O)=NN2c2ccccc2F)cc(OC)c1OC` (configuration not stated) as the molecule, how does the Potency read?
A: Its Potency is inconclusive: 20.6 µM [inhibitor, single point].
